# Source: PubChem BioAssay AID1347120 (National Center for Advancing Translational Sciences (NCATS), 2019)
# In all, about 390,000 compounds went through this assay and about 930 (0.24%) were called active. Inconclusive means that the source gave no clear call. Such entries were picked first, then a sample of the others. The call rests on the fitted dose curve; in most records, active means well fitted activation curve with a large enough effect; inconclusive means small, poorly fitted or top-dose-only effect; inactive means no such curve, though single readings can be large or run the other way. Potencies beside an inconclusive call are fits to weak or partial responses and may not hold up.
# Experiment: qHTS for Suppressors of FUS Proteinopathy: Primary screen using FUS-linked yeast assay; further: nearly all actives have a fitted effect of over 55% in size;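 on growth rescue (activation): plate controls were DMSO vehicle for no effect and reference control for full effect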
# Settings: S. cerevisiae FUS-expressing, OD600, 24 h; Potency: growth rescue; growth rescue (activation): at 76.6 µM (top of the series)
# Summary of the method: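 Yeast expressing FUS under galactose induction, OD 0.005 in 2% galactose medium; compounds in a dilution series, 24 h at 30C. Growth rescue by absorbance at 600 nm; CP55940 positive control, DMSO negative.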
# Potency means the concentration at half of the fitted maximal effect; tags describe the fitted curve by direction and shape.
SMILES,Potency,growth rescue (activation)
CCCCCCNc1ccc(C(=O)OCC)cc1,"inconclusive: 50.1 µM [activator, single point]",–
COc1ccc([C@H]2N[C@]3(CCCN(Cc4ccccc4)C3=O)[C@H]3C(=O)N(Cc4ccccc4)C(=O)[C@@H]23)cc1,"inconclusive: 35.5 µM [activator, single point]",–
Cc1oc2cc3oc(=O)c(CC(=O)NCC(=O)N[C@@H](C(=O)O)c4ccccc4)c(C)c3cc2c1C,–,inactive: 12.3%
COc1cc2c(cc1OC)C(COc1ccccc1OC)N(C(=O)COc1ccc(Cl)cc1)CC2 (stereo not given),"inconclusive: 44.7 µM [activator, single point]",–
O=C(/C=C/c1ccc(O)c(O)c1)c1ccc(S(=O)(=O)N2CCCCCC2)cc1,"inconclusive: 31.6 µM [activator, partial curve, poor fit]",–
COc1ccccc1C1CC(c2cccc(NS(C)(=O)=O)c2)=NN1S(=O)(=O)c1ccccc1 (stereo not given),"inconclusive: 25.1 µM [activator, partial curve]",–
COCCCNC(=O)C[C@@H]1C[C@@]2(C(=O)OC)CCCCC=C2N(Cc2ccc(Cl)cc2Cl)C1=O,"inconclusive: 31.6 µM [activator, single point]",–
COc1ccccc1C1Nc2ccccc2-n2c(-c3ccccc3)c3c(=O)n(C)c(=O)n(C)c3c21 (stereo not given),–,inactive: 15.1%
O=C(COC(=O)CC12CC3CC(CC(Br)(C3)C1)C2)NC(=O)NCc1ccco1,"inconclusive: 17.8 µM [activator, partial curve, poor fit]",–
Cc1ccc(NC(=O)CSc2ccc(-c3cccs3)nn2)cc1Cl,–,inactive: 0.878%
CCC1(c2ccccc2)NC(=O)N(CC(=O)Nc2cc(S(=O)(=O)N3CCCCC3)ccc2N(C)C)C1=O (stereo not given),"inconclusive: 28.2 µM [activator, single point]",–
CN(Cc1ccccc1)C(=O)c1ccc(NC(=O)Cc2ccc(NC(=O)C3CCN(S(=O)(=O)c4cccc([N+](=O)[O-])c4)CC3)cc2)cc1,"inconclusive: 22.4 µM [activator, single point]",–
C[C@@H]1CN([C@@H](C)CO)C(=O)Cc2cc(NC(=O)Nc3cccc4ccccc34)ccc2O[C@@H]1CN(C)Cc1ccc(C(F)(F)F)cc1,"inconclusive: 25.1 µM [activator, partial curve, poor fit]",–
CCCCCCCCN1C(=O)[C@H](CC(=O)NCCCN2CCCC2=O)C[C@@]2(C(=O)OC)CCCCC=C12,"inconclusive: 12.6 µM [activator, partial curve, poor fit]",–
COc1ccccc1Nc1nnc(SCc2nnc(-c3cc(OC)c(OC)c(OC)c3)o2)s1,"inconclusive: 25.1 µM [activator, partial curve, poor fit]",–
